# Laboratory results as given in PubChem BioAssay AID445 (National Center for Advancing Translational Sciences (NCATS), 2006).
# Among all 110,000 compounds or so, about 40 (0.04%) were called active. Inconclusive results, whose numbers are uncertain, are shown with a selection of clear calls. The call rests on the fitted dose curve; in most records, active means well fitted curve in the direction sought with a large enough effect in the signal ratio (not every such curve was filed as active); inconclusive means small, poorly fitted or top-dose-only effect, or a change in a side signal; inactive means flat fitted curve, though single readings scatter; the % refers to the signal ratio. Potencies beside an inconclusive call are fits to weak or partial responses and may not hold up.
# Assay: IkB Signaling;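 on IkBa stabilization activation: 0% = basal untreated cells and 100% = reference inhibitor full response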
# Settings: ABC-DLBCL IkBa-CBG/CBR dual luciferase ratio (green luciferase fused to IkBa over red control in OCI-Ly3 lymphoma cells), 4 h; IkBa stabilization activation: at 57.1 µM (top of the series), scaled: untreated 0%, proteasome inhibitor 100% unless noted
# Excerpt: NIH Molecular Libraries Screening Centers Network [MLSCN]
# NIH Chemical Genomics Center [NCGC]
# Nuclear factor kappa-B (NF-kappa-B) plays an important role in normal B cell development and survival. Diffuse large B cell lymphoma (DLBCL) is the most commonly observed type of non-Hodgkin's lymphoma. Gene expression analysis has identified an activated B cell-like subtype of DLBCL (ABC-DLBCL) which expresses known NF-kappa-B target genes. […] However, targets upstream of IKK have been largely unexplored and so nodes upstream of IKK in the NF-kappa-B pathway remain untested due to the lack of chemical probes.
# A cell-sensor assay for I-kappa-B-alpha stabilization was developed with NIH investigator Dr. R. Eric Davis in Dr. Louis M. Staudt's laboratory. The assay uses green (CBG68) and red (CBR) emitting beetle luciferases [Chroma-Glo(TM) developed by Promega Corp.] where the green luciferase is fused to I-kappa-B-alpha and the red luciferase is present in its native state. Both luciferase genes are stably present in the OCI-Ly3 human ABC DLBCL cell line, but their expression is under the control of tetracycline-inducible promoters. Following the addition of doxycycline to induce expression of the luciferases, the green luminescence in control cultures rises only slowly because the CBG fusion partner I-kappa-B-alpha is targeted by IKK activity for rapid degradation. In contrast, green luminescence rises rapidly in the presence of proteasome inhibitors or IKK inhibitors. The rise in red luminescence of CBR is not affected by proteasome or IKK inhibitors, and serves as normalization for cell number and nonspecific effects. Compounds were screened as a concentration-titration series that ranged from 57 uM to 0.7 nM.
# NCGC Assay Protocol Summary:
# Cells were seeded in 1536-well plates at 5000 cells/3ul in IMDM medium containing 0.5% FBS, w/o phenol red, L-glutamine, 25 mM HEPES, 3 mg/ml sodium bicarbonate. After centrifugation for 1 min. at 1000 rpm, 23 nl of compounds or DMSO were delivered to each well using a pin tool. Then 1ul 80ng/ml doxycycline was dispensed into white solid 1536-well plates and the plates were incubated at 37C/5% C02 in a cell incubator for 4 hrs. Then 4 ul Chroma-Glo luminescent substrate mix (Promega) was added to each well. The plate was incubated at R.T. for 10-15 min. The plates were measured on a ViewLux plate reader for green luminescence (540/20 nm filter) and red luminescence (618/8 nm filter). The green and red luminescent signals were corrected for red and green luminescence filter overlap using previously determined filter calibration constants (determined using the procedure outlined in the Promega Technical Manual). The %Activity was determined from the ratio of corrected green/red luminescent values. Green luminescent and ratio %Activity was determined by normalizing to the difference in signal between basal cells (0% Activity) and cells incubated with 10 uM of the proteasome inhibitor MG-132 (100% Activity). Red luminescent %Activity was normalized to the difference between red luminesence in basal cells (0%Activity) and zero luminescence (-100% Activity).
# Concentration-response curves were fitted to the signals arising from the green luminescence (I-kappa-B-alpha-luciferase fusion; IkB-luc) and the red luminescence (unfused luciferase; luc) as well as the calculated ratio. The concentration-effect curves were then classified based on curve quality (r2), response magnitude and degree of measured activity. Compounds were then categorized based on their concentration-response curves for all three datasets (Ikb-luc, luc and ratio).
# Keywords: IKK, I-kappa-B, IkB, IkBa, cytotoxicity, luminescence, MLSMR, MLSCN, NIH Roadmap, qHTS, NCGC
# Potency means the concentration at half of the fitted maximal effect.
SMILES,IkBa stabilization activation,Potency
Cc1ccc(-c2nnc(Nc3ccc(Br)cc3)c3ccccc23)cc1S(=O)(=O)N1CCCCC1,inconclusive: 5.42% [signal inhibitor],–
COc1ccccc1NC(=O)Cn1c(=O)n(Cc2ccco2)c(=O)c2oc3ccccc3c21,inconclusive: -0.507% [signal inhibitor],–
O=C(CN1C(=O)C(c2ccc(F)cc2)=NC12CCCCCC2)Nc1ccc(F)c(Cl)c1,inconclusive: 3.57% [signal inhibitor],–
COc1cc(-c2cc(OC)c3c(C)oc(C)c3c(=O)c2)ccc1OC(=O)c1ccccc1C,inconclusive: 0.17% [signal inhibitor],–
COC(=O)C(C)Sc1nnc2cc(C)c3cc(C)cc(C)c3n12 (centres undefined),inactive: -1.5%,–
COc1cc(C2C3=C(Nc4ncnn42)c2ccccc2CC3)cc(OC)c1OC (centres undefined),inactive: 8.71%,–
CN(C(=O)c1nc(-c2cccc(F)c2)n2c1CCCCC2)c1ccccc1F,inactive: -1.01%,–
Cc1ccc(-n2c3c(c(=O)[nH]c2=O)C(NC(=O)c2ccccc2F)(C(F)(F)F)C(=O)N3)cc1C (centres undefined),inactive: -0.382%,–
COc1ccc(-c2cc(C(=O)Nc3c(Cl)cccc3Cl)no2)cc1OC,inconclusive: 6.25% [signal inhibitor],–
CCN(CCCNC(=O)c1cc2c(=O)n(CC)c3ccccc3c2s1)c1cccc(C)c1,inconclusive: 1.35% [signal inhibitor],–
O=C(Nc1ccccn1)c1ccc(NC(=O)c2ccco2)cc1,inconclusive: 4.77% [signal inhibitor],–
COc1ccc2c(c1)c(=O)c(S(=O)(=O)c1ccc(C)c(C)c1)cn2CC(=O)Nc1ccccc1,inconclusive: 1.85% [signal inhibitor],–
CCc1ccc(N2CCn3c2nc2c3c(=O)n(Cc3ccc(F)cc3)c(=O)n2C)cc1,inconclusive: 2.22% [signal inhibitor],–
COc1ccc(Cl)cc1NC(=O)CN(c1cc(C)cc(C)c1)S(=O)(=O)c1c(C)n[nH]c1C,inconclusive: -5.39% [signal inhibitor],–
Cc1cccc(NC(=O)Nc2ccc(C#N)cc2)n1,inconclusive: -8.15% [signal inhibitor],–
COc1cc(-c2noc(C3CC(=O)N(c4ccc5c(c4)OCCO5)C3)n2)cc(OC)c1OC (centres undefined),inconclusive: 8.16% [signal inhibitor],–
Cc1ccc(CNc2ccc(-c3nc(-c4ccco4)no3)cc2[N+](=O)[O-])cc1,inconclusive: 6.49% [signal inhibitor],–
CCOC(=O)CCCCC(=O)c1[nH]c(=O)[nH]c1CSc1nc(C)cc(C)n1,inactive: -1.62%,–
COc1ccc(C(=O)Nc2ccc(-n3nncc3-c3ccc(OC)c(OC)c3)cc2)cc1,inactive: -2.15%,–
Cc1ccc(C2=Nc3ccccc3NC(c3ccncc3)=N2)cc1,inactive: 1.6%,–
CCOc1ccc(-c2nc3c(C#N)c[nH]n3c2NC2CCCC2)cc1,inconclusive: 0.299% [signal inhibitor],–
CCn1c(C(C)NC(=O)c2cccc(C)c2)nc2ccccc21 (centres undefined),inactive: -0.221%,–
Cc1ccc(-c2cn3c(n2)sc2cc(C(=O)NCCCc4ccccc4)ccc23)cc1,inconclusive: -0.402% [signal inhibitor],–
CCCC(=O)Nc1nc2ccc(OCC)cc2s1,inactive: 2.38%,–
CCc1ccccc1NC(=O)C1CCCN(S(=O)(=O)c2cccc3nsnc23)C1 (centres undefined),inconclusive: 0.516% [signal inhibitor],–

SMILES,IkBa stabilization activation,Potency
COc1ccc(CCNC(=O)CCc2c(C)nc3c(c(C)nn3-c3ccc(C)cc3)c2C)c(OC)c1,inconclusive: -0.324% [signal inhibitor],–
CCOc1ccc(N(CC(=O)Nc2ccccc2C)S(=O)(=O)c2c(C)noc2C)cc1,inconclusive: 10.3% [signal activator],–
CN(CCC#N)c1ncnc2scc(-c3ccccc3)c12,inconclusive: 1.57% [signal inhibitor],–
COCCOC(=O)c1[nH]c2c(c1C)C(=O)CC(c1ccccc1)C2 (centres undefined),inactive: 1.23%,–
Cc1cc(C)c(C#N)c(N2CCN(CCOc3ccc(Cl)cc3)CC2)n1,inconclusive: 2.83% [signal inhibitor],–
COc1ccc(OC)c(NS(=O)(=O)c2ccc3c(c2)CCCN3C(=O)C2CCC2)c1,inconclusive: 1.13% [signal inhibitor],–
O=C(Nc1ccc(F)cc1F)c1cc(CN2CCOCC2)on1,inconclusive: 2.9% [signal inhibitor],–
COc1cccc(C(c2sc3nc(-c4ccco4)nn3c2O)N2CCC3(CC2)OCCO3)c1 (centres undefined),inactive: -2.33%,–
Cc1ccc(S(=O)(=O)Nc2ccc3c(c2)CCCN3C(=O)c2cccs2)cc1C,inconclusive: 5.2% [signal inhibitor],–
CN(Cc1ccccc1)c1nc2c(c(=O)[nH]c(=O)n2C)n1CCCc1ccccc1,inactive: 4.86%,–
CCCN(CCC)CCCNC(=O)c1sc2nc3n(c(=O)c2c1C)CCC3,inactive: 0.239%,–
COc1cccc(C2=NOC(C(=O)N3CCc4ccccc4C3)C2)c1 (centres undefined),–,"inconclusive: 25.1 µM [signal inhibitor, partial curve]"
O=C(NCC(c1ccc2c(c1)OCO2)N1CCOCC1)C(=O)Nc1ccc(Cl)cc1 (centres undefined),–,"inconclusive: 3.98 µM [signal inhibitor, full curve, poor fit]"
Cc1ccccc1OCCSc1nnc(-c2ccc([N+](=O)[O-])cc2)o1,inactive: -1.71%,–
Cc1ccc2c(c1)C(c1ccccc1)N(C(=O)C(C)C)CC(=O)N2 (centres undefined),inactive: 1.32%,–
Oc1cccc(-c2nc(-c3cccs3)c(-c3cccs3)[nH]2)c1,inconclusive: -2.82% [signal inhibitor],–
CCc1cc2c(cc3c(=O)n(CC(=O)NC(C)C)nc(CC)n32)s1,inactive: -0.954%,–
O=C(c1ccc2c(c1)N(Cc1cccc(Cl)c1)C(=O)c1ccccc1S2(=O)=O)N1CCN(Cc2ccccc2)CC1,inactive: -1.11%,–
COc1ccc(CNC(=O)CSCc2ccc(C)cc2)c(OC)c1,inactive: -0.0963%,–
Cc1ccc(NS(=O)(=O)c2ccc(-c3cc(C)no3)cc2)c(C)c1,inconclusive: 4.31% [signal inhibitor],–
Cn1c(=O)oc2cc(S(=O)(=O)N3CCCC(C(=O)N4CCN(c5ccc(F)cc5)CC4)C3)ccc21 (centres undefined),inconclusive: 1.7% [signal inhibitor],–
Cc1ccnc(N(C(=O)c2cccs2)C(=O)c2cccs2)c1,inactive: 0.836%,–
CCc1nn2c(=O)cc(COC(=O)c3ccccc3NC(=O)c3ccc(C(C)(C)C)cc3)nc2s1,inconclusive: -1.58% [signal inhibitor],–
CC(Oc1ccc(Br)cc1)C(=O)N(Cc1nc(-c2ccccc2)no1)C(C)C (centres undefined),inconclusive: -0.286% [signal inhibitor],–
C=CCn1c(=O)/c(=C/c2ccc(O)cc2)s/c1=C(/C#N)c1nnc2n1CCCCC2,inactive: -0.722%,–

SMILES,IkBa stabilization activation,Potency
O=C(NCCCN1CCN(c2ccccc2)CC1)c1ccc2nc(CCc3ccccc3)oc2c1,inconclusive: 1.35% [signal inhibitor],–
COc1ccc2[nH]cc(CCNc3ncncc3-c3cccc(C#N)c3)c2c1,"inactive: 0.359% [at 11.4 µM, scaled: untreated 0%, proteasome inhibitor 100%]",–
c1coc(CNc2ncnc3nc[nH]c23)c1,inactive,–
Cc1ccc(-n2c(-c3cccc(C)c3)nc3c(cnn3-c3ccccc3)c2=O)cc1,inconclusive: 12.5% [signal inhibitor],–
CCOC(=O)CSc1ncnc2c1cnn2-c1ccc(C)cc1,inconclusive: 3.03% [signal inhibitor],–
Cc1ccc(N2CC(C(=O)N3CCN(c4ccccc4)CC3)CC2=O)cc1 (centres undefined),inactive: -0.795%,–
Cc1ccc2cc3cc(C(=O)NCCCN4CCc5ccccc5C4)oc3nc2c1,inconclusive: 1.36% [signal inhibitor],–
CC(C)C12CN3CC(C(C)C)(CN(C1)C31C(=O)Nc3ccccc31)C2=O (centres undefined),inactive: -0.695%,–
COc1ccc(-c2nc(CSc3nnc(C)n4c3cc3sccc34)c(C)o2)cc1,inactive: -2.54%,–
O=C(Nc1c(C(=O)N2CCN(c3ccccc3F)CC2)oc2ccccc12)c1ccc(Br)o1,inactive: 3.09%,–
CCS(=O)(=O)N1CCc2cc(C(=O)Nc3cccc(NC(C)=O)c3)ccc21,inconclusive: 3.92% [signal inhibitor],–
O=C(Cn1ncc2c1-c1ccccc1OC2)Nc1ccc(S(=O)(=O)N2CCCCC2)cc1,inconclusive: 7.87% [signal inhibitor],–
COc1ccc(S(=O)(=O)n2c(CCN3CCOCC3)nc3ccccc32)cc1,inactive: -0.513%,–
Cc1ccccc1/C=C\C1=NCCN1,inactive: 7.24%,–
Cc1ccc(C2c3[nH]c4ccccc4c3CCN2C(=O)CSc2ccccc2)cc1 (centres undefined),inconclusive: 4.6% [signal inhibitor],–
S=C(S)N1CCCC1,inconclusive: 3.09% [signal activator],"inconclusive: 25.1 µM [rising, partial curve]"
O=c1[nH][nH]c(=S)c(=O)[nH]1,"inactive: 1.2% [at 11.4 µM, scaled: untreated 0%, proteasome inhibitor 100%]",–
N#Cc1cc2c(nc1SCc1nc3ccccc3[nH]1)CCC2,inconclusive: 21% [signal inhibitor],–
O=C(CN1CCCN(Cc2cccc(F)c2)S1(=O)=O)Nc1ccc2c(c1)OCCO2,inconclusive: 1.16% [signal inhibitor],–
Cc1cccc(-c2nc(C)c(CCNC(=O)c3cccs3)s2)c1,inconclusive: 2.67% [signal inhibitor],–
Nc1nonc1-c1nc2ccccc2n1Cc1ccc(Cl)cc1,inactive: 2.31%,–
O=C(CCS(=O)(=O)c1nc(-c2ccc3c(c2)OCO3)cc(C(F)(F)F)n1)Nc1ccc(F)cc1F,inconclusive: -6.71% [signal inhibitor],–
CCS(=O)(=O)c1ncc(Cl)c(C(=O)Nc2c(C(=O)c3ccc(C)cc3)oc3ccccc23)n1,inconclusive: 7.24% [signal inhibitor],–
